# Results: ChEMBL document CHEMBL1201862, “PubChem BioAssay data set” (2004)
#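 48-hour exposure; five concentrations; linearly interpolated endpoints. Abbreviation: GI50, concentration required for 50% inhibition of growth.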 Activity calls are given as the source filed them. Rule as the data show it: active = GI50 up to about 1.1 µM and inactive = higher.
# Tests used:
# Test in all cases: DTP human tumour cell line panel, 48 h
# [1] = test system: SR
# [2] = test system: CCRF-CEM
# [3] = test system: OVCAR-4
# [4] = test system: HL-60
# [5] = test system: RPMI-8226
# [6] = test system: K562
# [7] = test system: MDA-MB-435
# [8] = test system: HCT-116
# [9] = test system: UO-31
# [10] = test system: RXF 393
# [11] = test system: SNB-75
# [12] = test system: NCI-H460
# [13] = test system: MOLT-4
# [14] = test system: MCF7
# [15] = test system: EKVX
# [16] = test system: A498
# [17] = test system: T47D
# [18] = test system: CAKI-1
# [19] = test system: LOX IMVI
# [20] = test system: Malme-3M
# [21] = test system: NCI/ADR-RES
# [22] = test system: HOP-92
# [23] = test system: NCI-H522
# [24] = test system: TK-10
smiles,measurement,setting,value
CCCC(=O)Oc1cc2c(c(OC)c1OC)-c1ccc(SC)c(=O)cc1[C@@H](NC(C)=O)CC2,GI50,[1],active: 2.01 nM
same,GI50,[2],active: 5.04 nM
same,GI50,[3],inactive: 9930 nM
same,GI50,[4],active: 2.17 nM
same,GI50,[5],active: 3.48 nM
same,GI50,[6],active: 2.94 nM
same,GI50,[7],active: 1.39 nM
same,GI50,[8],active: 2.51 nM
same,GI50,[9],active: 719 nM
same,GI50,[10],active: 2.88 nM
same,GI50,[11],active: 10 nM
same,GI50,[12],active: 7.36 nM
same,GI50,[13],active: 4.36 nM
same,GI50,[14],active: 4.14 nM
same,GI50,[15],inactive: 1120 nM
same,GI50,[16],active: 220 nM
same,GI50,[17],inactive: 10000 nM
same,GI50,[18],inactive: 5120 nM
same,GI50,[19],active: 2.79 nM
same,GI50,[20],active: 13.6 nM
same,GI50,[21],active: 962 nM
same,GI50,[22],active: 4.73 nM
same,GI50,[23],active: 1.94 nM
same,GI50,[24],inactive: 94800 nM
